This is one part of the list. The list includes weakly bound sequences.

This test addresses MaxL homodimer (UniProt P61244). Kind of test: universal protein-binding microarray (PBM). The note with it: PBS-based mixture, 10 nM His-tagged protein dimer, 2% milk, 200 ng/uL BSA, 50 ng/uL salmon testes DNA, 0.02% TX-100; detection with Alexa 488 anti-His …; high values mean tight binding; most listed sequences are background and not binding sites; double strand, one strand shown.
Sequence of UniProt P61244 (P61244 whole entry): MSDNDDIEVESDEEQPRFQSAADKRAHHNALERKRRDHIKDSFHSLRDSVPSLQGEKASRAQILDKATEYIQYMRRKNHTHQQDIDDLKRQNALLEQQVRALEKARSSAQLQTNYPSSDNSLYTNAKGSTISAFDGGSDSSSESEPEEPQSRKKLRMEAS
Regarding CGTAGAGA, the binding signal (normalized occupancy) came out at 0.0713.
On to GCGCCCTA, for which the binding signal (normalized occupancy) was 0.0679.
As for AGCAGACT, the binding signal (normalized occupancy) amounted to 0.0708.
For the sequence CAACGCTA, the binding signal (normalized occupancy) stood at 0.0734.
In the case of GTACGAAA, the binding signal (normalized occupancy) was 0.0715.
To CGGCATCA belongs 0.0791; to CCCTCTCC, 0.072; to GCTGTCCC, 0.0732.
Turning to CCCTGACG, the binding signal (normalized occupancy) was 0.0718.
As for ACAATTCC, the figure is 0.0741; as for GAACCGCA, 0.0725; as for AATTTTTC, 0.0718.
As for GGAGCCGA, the figure is 0.0662; as for AATGGTAG, 0.0804; as for ACACGTGA, 0.383.
For the sequence CCTATAGC, the binding signal (normalized occupancy) came to 0.0748.
As for AATGATCG, the figure is 0.0781; as for AACCCCCC, 0.0825; as for CCTCGCTA, 0.0749.
In the case of GCGAGGAC, the binding signal (normalized occupancy) amounted to 0.0744.
On to CAAACGGG, for which the binding signal (normalized occupancy) came to 0.0714.
To AATATATC belongs 0.0875; to TAAGCTTA, 0.0722.
To AGGACGAG belongs 0.0685; to CCGAATTA, 0.0738; to GGTTTGGA, 0.0748.
As for CCATAGGG, the binding signal (normalized occupancy) turned out to be 0.0736.
With CATTAAGA, the binding signal (normalized occupancy) was determined as 0.0765.
To TTAATGAA belongs 0.0772.
On to CCCAGCGA, for which the binding signal (normalized occupancy) is 0.0693.
As for ATTCGGTA, the figure is 0.0747; as for CACCACCA, 0.0797.
As to GCGATGCA, the binding signal (normalized occupancy) is 0.0712.
On to GACTTCTC, for which the binding signal (normalized occupancy) was 0.075.
As for ATATTGGC, the binding signal (normalized occupancy) turned out to be 0.0813.
As for ACCATCTC, the figure is 0.0758; as for GAAGATCC, 0.0732.
As for GAGATCGA, the binding signal (normalized occupancy) came to 0.0735.
In the case of GAACCTTA, the binding signal (normalized occupancy) came out at 0.0694.
Regarding GCACGTAA, the binding signal (normalized occupancy) stood at 0.0846.
On to AACTAAAC, for which the binding signal (normalized occupancy) was found to be 0.0739.
To ATCTAGAG belongs 0.0731.
As for ATAGGTTA, the figure is 0.0866; as for ACTCATAG, 0.0819.
For CCCGGGTC, the binding signal (normalized occupancy) stood at 0.07.
As for CGTGCTTC, the binding signal (normalized occupancy) worked out at 0.0896.
For GGGGCCCA, the binding signal (normalized occupancy) was 0.0703.
As for CAAGCTGC, the figure is 0.0701; as for TTCAGCAA, 0.0788; as for AAAGGGAA, 0.0742.
As for CACGTTAA, the figure is 0.0921; as for AGCGCATA, 0.0757.
Turning to ACTTCAAT, the binding signal (normalized occupancy) stood at 0.0781.
As to AAGGCGCC, the binding signal (normalized occupancy) stood at 0.0704.
On to CCGTAGAA, for which the binding signal (normalized occupancy) is 0.07.
As for CCGCCCAC, the figure is 0.0735; as for CCGCCGGC, 0.0624.
Regarding AGAGCTTC, the binding signal (normalized occupancy) was determined as 0.0656.
As for CGTGATAA, the figure is 0.0906; as for ATAAGTGG, 0.0731; as for ACGTGCAT, 0.104.
As for ATCTTTTC, the figure is 0.0767; as for CAGAGGTA, 0.0667.
Consider AACTCATG, for which the binding signal (normalized occupancy) came to 0.0927.
For GGGGATGA, the binding signal (normalized occupancy) was 0.0802.
For the sequence TCGAACCA, the binding signal (normalized occupancy) is 0.0767.
As for ATGCCAAG, the figure is 0.0786.
As for ATAGTTGA, the figure is 0.0762; as for AGTTGGAA, 0.069; as for ATGGACCC, 0.0803.
As for CCACCAGG, the figure is 0.0739; as for AAGAGTCA, 0.0776; as for CTGGGTAA, 0.0719.
As for ATACACGA, the binding signal (normalized occupancy) is 0.0889.
To GCAGGACA belongs 0.0704; to GTAGAGCA, 0.0741; to ATAGGCAA, 0.0784.
As for GCCCCGGA, the figure is 0.0676.
As for AGCTGGGG, the figure is 0.0674; as for TAGCCGAA, 0.0697.
Turning to AAACCATT, the binding signal (normalized occupancy) was determined as 0.0769.
As for ATGGTCTG, the figure is 0.0769; as for GCAGGCGA, 0.075; as for AGGGTTTC, 0.0725.
Turning to CACGTCAC, the binding signal (normalized occupancy) was determined as 0.0901.
Consider GAGAAGGA, for which the binding signal (normalized occupancy) came out at 0.0733.
To CGGTCTTC belongs 0.0716; to GTACTCAA, 0.0762.
To TGAACTCA belongs 0.0755.
As to ACAAGGAT, the binding signal (normalized occupancy) amounted to 0.0764.
Consider GGTGTCAA, for which the binding signal (normalized occupancy) was found to be 0.0753.
To GTGATCTA belongs 0.0775; to ATCCGCTA, 0.069; to ATAAACTA, 0.0706.
As for ATATCTCC, the figure is 0.0807.
Regarding ACACGTCG, the binding signal (normalized occupancy) was found to be 0.0849.
As for CTCATTCA, the figure is 0.0751; as for ATGGCGGG, 0.0805; as for AGATGTAA, 0.0794.
To CCAACCTC belongs 0.0754; to GATGAGAA, 0.0748; to CAGCTTGA, 0.0716.
GCTGCTTA: the binding signal (normalized occupancy) turned out to be 0.0692.
To CGTCAAAC belongs 0.0741.
As for TCACCGAA, the figure is 0.0704; as for AGGGTGAC, 0.0768; as for CTACGTAG, 0.0706.
To ACGTGGAA belongs 0.108.
For AAATGAGG, the binding signal (normalized occupancy) stood at 0.0874.
ACGTTGGA: the binding signal (normalized occupancy) amounted to 0.0794.
As to CGTCGACG, the binding signal (normalized occupancy) came out at 0.07.
To ACGCTCCA belongs 0.0735; to TAAGAGCA, 0.0777; to CCGCACTA, 0.0724.
Consider ACCTTTGC, for which the binding signal (normalized occupancy) is 0.0696.
For CTCCTCAG, the binding signal (normalized occupancy) is 0.0738.
As for AGAATGTA, the figure is 0.0758.
For the sequence AGTCCGCG, the binding signal (normalized occupancy) came to 0.0732.
To GGATATGA belongs 0.0848; to GGTGGCAA, 0.0755.
For CAAACGCA, the binding signal (normalized occupancy) is 0.0734.
For the sequence AAACGGGT, the binding signal (normalized occupancy) was determined as 0.0744.
Turning to AGTGATAA, the binding signal (normalized occupancy) came out at 0.0774.
To AATGGCGG belongs 0.0712; to CAAGACGC, 0.0714.
As for ACAGATAA, the figure is 0.0778; as for GAGCCCAA, 0.0733; as for GCTTGCGA, 0.0665.
For GCGGCAGC, the binding signal (normalized occupancy) is 0.0701.
On to AATGGCGT, for which the binding signal (normalized occupancy) amounted to 0.0784.
As for ATTGCAAA, the figure is 0.0748; as for AGGTCTCC, 0.0696; as for AGGGTCGC, 0.0684.
To ACCAGGTA belongs 0.0723.
GTGATAGA: the binding signal (normalized occupancy) stood at 0.0855.
Consider AGTTAGTC, for which the binding signal (normalized occupancy) amounted to 0.07.
To CAGAACTC belongs 0.0683; to CATATTAG, 0.0796; to ACACTGGG, 0.0763.
As for GCCAAATA, the figure is 0.0765; as for GGCGCAAC, 0.0668; as for AAAAACCT, 0.072.
In the case of AGTGCAGC, the binding signal (normalized occupancy) came out at 0.071.
AGGCTAAT: the binding signal (normalized occupancy) stood at 0.0714.
As for GTTCACTA, the figure is 0.0695; as for ATACTATC, 0.0803.
As for AGGAACAA, the figure is 0.0686; as for GATCACCA, 0.0749; as for ATTTCTAC, 0.0772.
As for CGTAGTAG, the figure is 0.0708.
As for AACGTTGC, the binding signal (normalized occupancy) was determined as 0.0766.
As for CGAGAACA, the figure is 0.0747; as for GGCAAGAC, 0.0729.
GCGCGAGA: the binding signal (normalized occupancy) amounted to 0.0753.
For the sequence CGCTTGTA, the binding signal (normalized occupancy) is 0.0739.
As for CTCTGATA, the figure is 0.073; as for ATAGTAAG, 0.0776; as for ACCTTATG, 0.0812.
To ACCGCAAC belongs 0.0732; to CAGCCTGA, 0.0752; to CGTTAGAC, 0.0747.
As for ACCAGGGC, the figure is 0.0733; as for AATTCTGG, 0.0737; as for GCAATAGC, 0.0744.
On to AAAGCATT, for which the binding signal (normalized occupancy) was determined as 0.0756.
As to GTAATTGA, the binding signal (normalized occupancy) is 0.0751.
In the case of GCATAACA, the binding signal (normalized occupancy) turned out to be 0.0808.
To AGGCGTAC belongs 0.0691; to AGCGGTAG, 0.0702.
Regarding CATATAAG, the binding signal (normalized occupancy) was found to be 0.0879.
ACATCTAG: the binding signal (normalized occupancy) amounted to 0.0794.
As for CGCGACCC, the figure is 0.0794.
